Assay results: PubChem BioAssay AID1159614 (National Center for Advancing Translational Sciences (NCATS), 2016)
About 65 (0.1%) of roughly 45,000 compounds were called active. Calls come from the whole dose curve; as a rule, active = well fitted activation curve with a large enough effect; inconclusive = small, poorly fitted or top-dose-only effect; inactive = no such curve, though single readings can be large or run the other way. This is one part of the list.

Target: Galactocerebrosidase (Homo sapiens) (UniProt P54803)
UniProt P54803, sequence (P54803 whole entry, looked up): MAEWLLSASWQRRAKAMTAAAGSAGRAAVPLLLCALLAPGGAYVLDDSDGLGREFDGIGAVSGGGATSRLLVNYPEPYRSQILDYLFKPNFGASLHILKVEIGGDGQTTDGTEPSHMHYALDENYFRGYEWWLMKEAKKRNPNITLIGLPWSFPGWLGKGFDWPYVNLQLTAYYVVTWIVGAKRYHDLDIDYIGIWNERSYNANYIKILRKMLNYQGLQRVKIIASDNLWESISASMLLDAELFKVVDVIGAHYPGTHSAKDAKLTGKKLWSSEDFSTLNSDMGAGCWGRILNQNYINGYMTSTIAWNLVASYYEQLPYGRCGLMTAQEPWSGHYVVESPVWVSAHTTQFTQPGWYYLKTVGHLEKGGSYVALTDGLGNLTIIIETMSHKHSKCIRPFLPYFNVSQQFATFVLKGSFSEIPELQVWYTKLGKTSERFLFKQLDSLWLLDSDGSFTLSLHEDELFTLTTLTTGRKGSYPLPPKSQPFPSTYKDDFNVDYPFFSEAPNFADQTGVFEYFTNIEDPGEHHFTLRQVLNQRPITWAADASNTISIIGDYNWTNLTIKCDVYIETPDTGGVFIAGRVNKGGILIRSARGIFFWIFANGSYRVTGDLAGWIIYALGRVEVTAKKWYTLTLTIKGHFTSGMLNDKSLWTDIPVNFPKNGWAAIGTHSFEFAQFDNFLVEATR
Assay: A Novel Cell-Based Assay to Identify Small Molecules for B -Galactocerebrosidase; note: 0% is about no effect; nearly all actives have a fitted effect of over 65% in size
Settings: 145M-Twi-hGALC-G270D cells (Twitcher mouse brain line with human GALC G270D), HMU-beta-Gal fluorescence, 48 h; series mostly up to 57.5 µM; activation: at the top concentration
Outline: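 Fluorogenic HMU-b-Gal hydrolysis (0.1 mM final, pH 5.2 citrate-phosphate with 1 mg/mL sodium taurocholate; carbonate stop buffer) measures mutant GALC activity after compound treatment of live 145M-Twi Twitcher brain cells stably carrying human GALC-G270D, with wild-type GALC line alongside; activation sought.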

activation, inactive:
CCc1ccc(NC(=O)CCS(=O)(=O)c2cc3c(cc2Cl)NC(=O)CO3)cc1 2.42%
CCOc1ccc(-c2cc(CCCC(=O)NCCc3ccc(Cl)cc3)no2)cc1 -7.99%
O=C(NCCc1csc(-c2ccc(C(F)(F)F)cc2)n1)c1ccc(F)c(F)c1 -32.6%
Cc1cccc(NC(=O)CSc2nc(-c3cccs3)cc(C(F)(F)F)c2C#N)c1C 14.5%
COC(=O)c1c(-c2cccs2)csc1NC(=O)c1cccc(Cl)c1 -13.4%
COC(=O)c1c(-c2cccs2)csc1NC(=O)c1ccc(Br)cc1 -5.95%
Cc1cccc(-c2c3c(=O)n(C)c(=O)n(C)c3c3c(C)nc4ccccc4n23)c1 -7.2%
CCN(c1ccccc1)S(=O)(=O)c1cc(Br)cc2c1N(C(=O)C1CC1)CC2 3.44%
Cc1ccc(-c2cc(C(=O)NCc3cnn(C)c3C)c3ccccc3n2)cc1C -6.09%
Cc1ccc(C(=O)N2CCc3cc(CNC(=O)CSc4ccccc4)ccc32)cc1 -26.9%
COc1ccc(CNC(=O)C(=O)Nc2c3c(nn2-c2ccccc2)CSC3)cc1 -2.35%
COc1cc(OC)c(OC)cc1CN1CCc2nc(Nc3ccc4c(c3)OCCO4)ncc2C1 -9.71%
CCCNC(=O)C1=CC(c2ccc3c(c2)OCO3)=NS(=O)(=O)N1C -14.3%
N#Cc1ccc(S(=O)(=O)N2CCC(Oc3cccc(C(F)(F)F)c3)CC2)cc1 -9.03%
COc1ccc(S(=O)(=O)NCCc2sc(-c3cccnc3)nc2C)cc1OC -21.8%
COc1cc(CN(C(=O)c2ccccc2Br)c2ccccn2)cc(OC)c1OC 2.49%
Cc1cc(C)cc(NC(=O)Cn2nc(N3CCN(c4ccccc4)CC3)ccc2=O)c1 -11.4%
CC(=O)c1c(C)n(S(=O)(=O)c2ccc(Cl)cc2)c2ccc(NS(=O)(=O)c3ccc(Cl)cc3)cc12 -23%
CCOc1cc2c(cc1OCC)C(CC(=O)OC)N(C(=O)Nc1cc(OC)ccc1OC)CC2 (stereo unspecified) -20.6%
CCOC(=O)c1ccc(N)cc1 -11.6%
CCN(CC)C(=O)c1sc2c(c1C)c(=O)n(CCc1ccccc1)c(=O)n2Cc1ccc(C)cc1 -9.66%
CCc1ccc(NC(=O)c2cccc(N3CCCS3(=O)=O)c2)cc1 1.01%
Cc1ccc(C)c(N2CCN(C(=O)CCS(=O)(=O)c3ccc4c(c3)oc(=O)n4C)CC2)c1 -7.55%
Cc1ccc(NC(=O)CN2C(=O)C(c3ccc(C)cc3)=NC23CCCCCC3)cc1 9.98%
COc1ccc2c(c1)c(=O)c(S(=O)(=O)c1ccc(Cl)cc1)cn2Cc1cc(C)ccc1C -0.714%
CCCCNC(=O)c1cc(-c2cccnc2)nc2ccc(S(=O)(=O)NCCCC)cc12 -7.26%
CCN1CCSc2ccc(C(=O)NCc3ccc(F)cc3)cc21 27.7%
COc1ccc(CNC(=O)Cn2ncc3c(=O)oc4ccccc4c32)c(OC)c1 -11.5%
Cc1ccc(CNC(=O)CCSCc2cnn(-c3ccccc3)c2-n2cccc2)cc1 -0.421%
COc1ccc(NCc2cccn2-c2nnc(N3CCOCC3)s2)cc1OC -9.26%
CCc1cccc(NC(=O)Cc2nc(-c3ccc(OC)cc3)no2)c1 -6.07%
COCCCNC(=O)c1nn(C)c2c1CS(=O)(=O)c1ccccc1-2 -10.5%
Cc1csc2nc(COC(=O)c3cccc(NC(=O)COc4ccccc4Cl)c3)cc(=O)n12 -6.42%
CCN(CC)CCOC(=O)C(c1ccccc1)c1ccccc1 -7.02%
OC(CCCN1CCCCC1)(c1ccccc1)c1ccccc1 -8.92%
COc1cc([N+](=O)[O-])ccc1NC(=O)c1nc2ccccc2n(C)c1=O -11.3%
Cc1ccc(S(=O)(=O)c2nc(-c3cccc(Br)c3)oc2N2CCCCCC2)cc1 -26%
O=C(CSc1nnc2[nH]c(=O)cc(-c3ccccc3)n12)Nc1ccc(OC(F)(F)F)cc1 -8.23%
COC(=O)CCCn1c(-c2ccc(C)cc2)c(C)n2c3c(=O)n(C)c(=O)n(C)c3nc12 -7.17%
COc1ccc(CNC(=O)CC2N=C3c4ccccc4N=C(SCC(=O)Nc4ccc(C(C)C)cc4)N3C2=O)cc1 (stereo unspecified) -6.51%
COc1ccc(-c2cn3c(n2)sc2cc(C(=O)NC(C)C45CC6CC(CC(C6)C4)C5)ccc23)cc1 (stereo unspecified) -11.7%
CCCSc1ncc(Cl)c(C(=O)Nc2sc(C(C)=O)c(C)c2C(=O)OCC)n1 -11.7%
O=C(Cc1ccc(Cl)cc1)NCC(c1cccs1)S(=O)(=O)c1ccccc1 (stereo unspecified) -6.92%
Cc1cc(=O)n(Cc2c(F)cccc2Cl)c2c1c(C)nn2-c1cccc(F)c1 -12%
Cc1ccc(S(=O)(=O)N(CC(=O)Nc2ccc(F)cc2F)Cc2ccc(F)cc2)cc1 -16.8%
CCN(CC)c1cc(C)c2cc(NC(=O)c3cc(OC)cc(OC)c3)ccc2n1 -11.5%
CCn1ccc2c(OCC(=O)Nc3ccc(C)c(Cl)c3)cccc2c1=O -7.4%
COc1cccc(N2CCN(C(=O)CCSCc3ccccc3F)CC2)c1 4.07%
CCOC(=O)C1CCN(S(=O)(=O)c2cc3c4c(c2)C(C)C(=O)N4CCC3)CC1 (stereo unspecified) -14.9%
Cc1cccc(C(=O)Nc2c(C(=O)N3CCN(c4ccc(F)cc4)CC3)oc3ccccc23)c1 -9.82%
CN(C)S(=O)(=O)c1ccc2c(c1)N(CC(=O)Nc1cccc(C(F)(F)F)c1)C(=O)CS2 -2.81%
Cc1c(CNC(C)CCc2ccccc2)c(C(=O)O)c(C)n1Cc1ccc(F)cc1 (stereo unspecified) -19.8%
CCOc1ccc(NC(=O)C(CC(C)C)N2Cc3ccccc3C2=O)cc1 (stereo unspecified) -1.46%
CCOC(=O)c1ccccc1NC(=O)NCc1c(-n2cccc2)sc2c1CCCC2 -16.1%
CC(C)(C)OC(=O)N1CCC(N2CCN(Cc3ccccc3)C(=O)C2=O)CC1 -7.77%
Cc1onc(-c2ccccc2Cl)c1C(=O)Oc1ccccc1F -18.3%
COc1cc(C(=O)NC(c2ccccc2Cl)c2cc(Cl)c3cccnc3c2O)cc(OC)c1OC (stereo unspecified) -11.3%
Cc1ccc(C)c(NC(=O)CSc2nnc3[nH]c(=O)cc(-c4ccccc4)n23)c1 -4.5%
CC(=O)Nc1ccc(NC(=O)c2cc(CN3CCCC3)on2)cc1 -16%
CCOc1ccc(NC(=O)Cn2c(=O)n(CC3CCC(C(=O)NCCc4ccccc4)CC3)c(=O)c3ccccc32)cc1 (stereo unspecified) -12.3%
COc1ccc(NC(=O)CSc2oc(-c3ccco3)nc2S(=O)(=O)c2ccc(C)cc2)c(OC)c1 -10.9%
COc1ccccc1C(=O)Nc1cccc(C(=O)OCc2cc(=O)n3c4c(sc3n2)CCCC4)c1 -11.5%
CCS(=O)(=O)N1CCc2cc(C(=O)Nc3cc([N+](=O)[O-])ccc3C)ccc21 3.45%
COc1cc(C2c3c(-c4cc(C)ccc4O)n[nH]c3C(=O)N2Cc2cccnc2)cc(OC)c1OC (stereo unspecified) -22.4%
CCOc1ccccc1NC(=O)c1ccc2c(c1)CCN2S(C)(=O)=O -10.4%
CCn1cc2nc(SCC(=O)Nc3cc(OC)ccc3OC)n(Cc3ccc(Cl)cc3)c(=O)c2n1 -9.95%
Cc1ccc(-n2c(SCC(=O)N3CCc4ccccc43)nc3c([nH]c4ccccc43)c2=O)cc1 -0.101%
O=C(NC1CCCCC1)c1ccc2c(c1)N(Cc1ccccc1F)C(=O)c1ccccc1S2 -2.7%
Cn1c(=O)c(=O)n(C)c2cc(S(=O)(=O)N3CCCC3C(=O)Nc3cccc(F)c3)ccc21 (stereo unspecified) -7.71%
O=C(CCn1c(=O)c2cccn2c2cccnc21)N1CCN(c2ccc(F)cc2)CC1 -11.1%
CCCC(=O)Nc1nnc(SCc2cc(=O)n3ccccc3n2)s1 -7.75%
COc1ccccc1CCNC(=O)Cn1ccc2cc(S(=O)(=O)N3CCCCC3)ccc21 -27%
CC(C)(C)CC(C)(C)c1ccc(O)c(Cc2ccc(Cl)cc2Cl)c1 -14.3%
COc1ccc(C(=O)Nc2ccc3nc(SCC(=O)N4CCCC4)sc3c2)cc1 -16.9%
COc1ccc(-c2noc(CN(C(=O)c3ccccc3Cl)C(C)C)n2)cc1 -7.45%
Cc1ccccc1Cn1c(-c2cccs2)nc2ccccc21 -11%
CCN(CCN(C)C)C(=O)Cn1ncc2c([nH]c3ccc(C)cc32)c1=O -14.7%
CN1CCN(c2c(F)cc3c(=O)c(C(=O)O)cn4c3c2OCN4C)CC1 -21.9% [at 23.8 µM]
Cc1ccc(CNC(=O)C2CCN(Cc3nc(-c4ccccc4C)oc3C)CC2)cc1 -12.1%
Cc1ccn2c(Nc3ccccc3C)c(-c3ccncc3)nc2c1 -2.57%
Cc1cccc(NC(=O)CSc2nnc(CNC(=O)c3cccc(C)c3)n2-c2ccccc2)c1 -14.1%
CCCCn1c(CN2CCN(c3ccc(OC)cc3)CC2)nc2c1c(=O)[nH]c(=O)n2C -8.59%
CCOc1ccc(CNC(=O)CCC(=O)N2Cc3ccccc3Oc3ncccc32)cc1 -7.8%
Cc1ccc(Cn2c(CN3CCC(C(=O)NCc4cccnc4)CC3)cc3ccccc32)cc1 -0.752%
COC(=O)c1cc(Cl)c(NC(C)=O)cc1OC -9.03%
Cc1ccc2nc(CSc3nnc(NC(=O)CC(C)C)s3)cc(=O)n2c1 -9.95%
CN1CC(=O)N(CC(=O)Nc2cccc(C#N)c2)c2ccccc2C1=O -7.77%
O=C(Nc1ccccc1C(F)(F)F)C1(S(=O)(=O)c2ccc(Cl)cc2)CC1 -4.45%
COc1ccc(OC)c(NC(=O)C2CCCN(S(=O)(=O)c3ccc4[nH]c(=O)ccc4c3)C2)c1 (stereo unspecified) -6.99%
NC(=O)CSc1nc2cc3c(cc2c(=O)n1CCCCCC(=O)NCc1ccc2c(c1)OCO2)OCO3 -7.08%
COc1ccc(OC)c(NC(=O)CSc2c3c(nc4cc(Cl)ccc24)CCCC3)c1 -4.89%
CC(=O)c1cccc(NC(=O)CCS(=O)(=O)c2ccc3c(c2)n(C)c(=O)c(=O)n3C)c1 -5.26%
CCCCCCNC(=O)CCc1c(C)nc2nc(-c3cc(OC)cc(OC)c3)nn2c1C 0.178%
Cc1ccc(C(=O)c2cn(Cc3cc(C)ccc3C)c3nc(C)ccc3c2=O)cc1 0.047%
CCOCCCNC(=O)C(NC(=O)C1CCC(C)CC1)C(C)C (stereo unspecified) -4.42%
CN(C1CCCCC1)S(=O)(=O)c1ccc2c(c1)c(=O)c(C(=O)N1CCN(c3ccc(F)cc3)CC1)cn2C -12.9%
